Experimental data published in PubChem BioAssay AID1259407 (Chemical Carcinogenesis Research Information System (CCRIS), 2018).
“Also recorded” adds a separate entry of the source. For part of its entries the source gives two or more results. The list is limited to them. The rule behind the calls is not given here. An entry can have further records. Results that share an entry do not match, cause unknown; dose, time, organism, isomer or construct need not be as stated for each record. Brackets tell where a record comes from. Letters hold for one entry only. Marks such as (2×) count equal records among those shown.

Test system: CCRIS mutagenicity, Ames/micronucleus/aberration tests
Experiment: CCRIS mutagenicity studies
[1] = End Point: IN VITRO CHROMOSOMAL ABERRATIONS, Test System: CHL CELLS, Metabolic Activation: NONE
[2] = End Point: IN VITRO CHROMOSOMAL ABERRATIONS, Test System: CHO CELLS, Metabolic Activation: NONE

OC1C2(Cl)C3(Cl)C4(Cl)C(Cl)(Cl)C5(Cl)C3(Cl)C1(Cl)C5(Cl)C24Cl (centres undefined)
mutagenic call (End Point: IN VITRO CHROMOSOMAL ABERRATIONS, Test System: CHINESE HAMSTER OVARY CELLS, Metabolic Activation: RAT, LIVER, S-9, AROCLOR 1254): inactive; negative and active; positive

ClC(Cl)(Cl)C(Cl)(Cl)Cl
mutagenic call (End Point: IN VITRO CHROMOSOMAL ABERRATIONS, Test System: CHINESE HAMSTER OVARY CELLS, Metabolic Activation: NONE): active; positive and inactive; negative

Nc1ccccc1C(=O)O
mutagenic call (Test System: MOUSE LYMPHOMA, Strain/Indicator: L5178Y (TK+/TK-), Metabolic Activation: NONE, Method: SUSPENSION/PLATE): active; positive and inactive; negative

Nc1ccc2c(ccc3c4ccccc4ccc23)c1
mutagenic call (Test System: AMES SALMONELLA TYPHIMURIUM, Strain/Indicator: TA100, Metabolic Activation: RAT LIVER S-9, AROCLOR 1254 (10%), Method: STANDARD PLATE): active; positive [0.2 to 2.0 µg/plate] and inactive; negative [5 to 100 µg/plate]

CC(=O)OCCN(CCC#N)c1ccc(N=Nc2ccc([N+](=O)[O-])cc2)cc1
mutagenic call [1]: inactive; negative and active; positive (structural changes)

ClCCOCCCl
mutagenic call (Test System: AMES SALMONELLA TYPHIMURIUM, Strain/Indicator: TA1535, Metabolic Activation: HAMSTER, LIVER, S-9, PHENOBARBITAL AND BETA-NAPHTHOFLAVONE, Method: PREINCUBATION): inactive; negative and active; positive (2×)
mutagenic call (Test System: AMES SALMONELLA TYPHIMURIUM, Strain/Indicator: TA1535, Metabolic Activation: RAT, LIVER, S-9, PHENOBARBITAL AND BETA-NAPHTHOFLAVONE, Method: PREINCUBATION): inactive; negative and active; positive (2×)
mutagenic call (Test System: E. COLI, Strain/Indicator: WP2UVRA, Metabolic Activation: HAMSTER, LIVER, S-9, PHENOBARBITAL AND BETA-NAPHTHOFLAVONE, Method: PREINCUBATION): active; positive (2×) and inactive; negative

Oc1ccc(O)c(O)c1
mutagenic call (Test System: AMES SALMONELLA TYPHIMURIUM, Strain/Indicator: TA97, Metabolic Activation: NONE, Method: PREINCUBATION): inactive; negative and active; positive
mutagenic call (Test System: AMES SALMONELLA TYPHIMURIUM, Strain/Indicator: TA98, Metabolic Activation: NONE, Method: PREINCUBATION): inactive; negative and active; positive

O=[N+]([O-])c1cccc2c([N+](=O)[O-])cccc12
mutagenic call [1]: active; positive (ploidy changes); also recorded: inactive; negative; authors report equivocal results for ploidy changes at 0.063 and 0.13

ClCc1cccnc1
mutagenic call (Test System: E. COLI, Strain/Indicator: WP2 UVRA, Metabolic Activation: HAMSTER, LIVER, S-9, AROCLOR 1254, Method: STANDARD PLATE): inactive; negative (2×) and active; positive
mutagenic call (Test System: E. COLI, Strain/Indicator: WP2 UVRA, Metabolic Activation: HAMSTER, LIVER, S-9, Method: STANDARD PLATE): inactive; negative (2×) and active; positive
mutagenic call (Test System: E. COLI, Strain/Indicator: WP2 UVRA, Metabolic Activation: MOUSE, LIVER, S-9, Method: STANDARD PLATE): inactive; negative (2×) and active; positive

C=CC#N
mutagenic call [1]: active; positive (structural changes) (2×); also recorded: active; positive (structural changes); authors report equivocal results for ploidy chang
mutagenic call (Test System: MOUSE LYMPHOMA, Strain/Indicator: L5178Y (TK+/TK-), Metabolic Activation: RAT, LIVER, S-9, AROCLOR 1254, Method: SUSPENSION/PLATE): active; positive [study A]; also recorded: active; positive [study B]; also recorded: active; positive. reevaluation of results: positive [study C]

CCCCC(CC)COC(=O)c1ccccc1C(=O)OCC(CC)CCCC (centres undefined)
mutagenic call [2]: inactive; negative; precipitation occurred at 500, 1600, and 5000 ug/ml; also recorded: inactive; negative; precipitation occurred at all doses
mutagenic call (End Point: IN VITRO CHROMOSOMAL ABERRATIONS, Test System: CHO CELLS, Metabolic Activation: RAT, LIVER, S-9, AROCLOR 1254): inactive; negative; precipitation occurred at 500, 1600, and 5000 ug/ml; also recorded: inactive; negative; precipitation occurred at all doses

N.N.[Br-].[Br-].[Pt+2]
mutagenic call (Test System: AMES SALMONELLA TYPHIMURIUM, Strain/Indicator: TA98, Metabolic Activation: RAT, LIVER, S-9, AROCLOR 1254, Method: PREINCUBATION): active; positive and inactive; negative
mutagenic call (Test System: AMES SALMONELLA TYPHIMURIUM, Strain/Indicator: TA100, Metabolic Activation: RAT, LIVER, S-9, AROCLOR 1254, Method: PREINCUBATION): active; positive and inactive; negative

Nc1ccc([N+](=O)[O-])cc1N
mutagenic call [1]: active; positive (structural changes); also recorded: active; positive (structural changes); precipitation occurred at 1.5 mg/ml

Nc1ccc2nc3ccccn3c2n1
mutagenic call (Test System: CHINESE HAMSTER V-79, Strain/Indicator: V-79/6-THIOGUANINE, Metabolic Activation: HAMSTER, PANCREAS DUCT, EPITHELIAL CELLS): active; positive and inactive; negative

CCCOC(=O)c1cc(O)c(O)c(O)c1
mutagenic call [2]: active; positive (2×) and active; positive; weak response

CC[C@@]1(O)C[C@H](O[C@H]2C[C@H](N(C)C)[C@H](O[C@H]3C[C@H](O)[C@H](O[C@H]4CCC(=O)[C@H](C)O4)[C@H](C)O3)[C@H](C)O2)c2c(cc3c(c2O)C(=O)c2c(O)cccc2C3=O)[C@H]1C(=O)OC
mutagenic call (Test System: AMES SALMONELLA TYPHIMURIUM, Strain/Indicator: TA102, Metabolic Activation: NONE, Method: STANDARD PLATE): inactive; negative [study A] and active; positive [study B]
